Consider 45 compounds from PubChem BioAssay AID1508624 (National Center for Advancing Translational Sciences (NCATS), 2021).

Hit rate of the full screen: of about 48,000 compounds, about 120 (0.25%) were called active. Roughly 4% stayed inconclusive and do not appear here. Calls come from the whole dose curve; as a rule, active = well fitted activation curve with a large enough effect; inconclusive = small, poorly fitted or top-dose-only effect, or another doubt; inactive = no such curve, though single readings can be large or run the other way. This is one part of the list.

A short description of this assay: Primary qHTS for Identification of Small Molecule Activators of Huntingtin-Antisense Promoter Activity. Note: nearly all actives have a fitted effect of over 55% in size. The conditions noted are these: HEK293 HTT-AS promoter firefly luciferase reporter, 24 h; series mostly up to 57.5 µM; activity change, positive = activation: at the top concentration. In outline: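 HEK293 cells carrying firefly luciferase reporters were seeded at 2,500 per well in Opti-MEM and cultured for 24 h. They were then treated with compounds at up to 57.5 uM final for 24 h at 37 degrees C before Dual-Glo luminescence readout.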
A general note: qHTS replaces the single test concentration by a dilution series.
In the case of `COc1cc(/C=C(\C#N)c2nc3ccccc3[nH]2)ccc1OCc1ccc(F)cc1`, the “activity change, positive = activation” value was inactive: -19.7%.
With `COc1cc(-c2nc(SCC(=O)Nc3ccc(C)cc3)c(-c3ccc(F)cc3)[nH]2)cc(OC)c1OC`, the “activity change, positive = activation” value is inactive: -39.4%.
As for `CCCN(CCC)CCCNC(=O)c1cnn(-c2ccc(F)cc2)c1-n1cccc1`, the figure is inactive: -9.7%.
As for `Cc1cccc(-c2nn3c(=O)cc(CN4CCN(C(=O)c5ccccc5Br)CC4)nc3s2)c1`, the figure is inactive: -3.35%; as for `C#CC(C)(CC)NC(=O)Cn1nnc(-c2ccc(OCc3ccccc3C)cc2)n1` (stereo not given), inactive: -22.1%.
The value for `COc1ccccc1N1CCN(C(=O)c2cnn(-c3cccc(Cl)c3)c2C2CCN(C(=O)OC(C)(C)C)CC2)CC1` was inactive: -34.5%; that for `CCCn1c2ccccc2c2cnn(CC(=O)NCC3CCN(Cc4ccc(F)cc4)CC3)c(=O)c21` was inactive: -25%; that for `CCc1ccccc1NC(=O)c1cc(S(=O)(=O)N2CCc3ccccc32)ccc1F` was inactive: -34.2%.
With `CN(Cc1cnc2nc(N)nc(N)c2n1)c1ccc(C(=O)N[C@@H](CCC(=O)O)C(=O)O)cc1`, the activity change, positive = activation entry is “inactive”.
With `COc1ccccc1CNc1nc(-c2ccco2)nn1C(=O)c1cc(OC)c(OC)c(OC)c1`, the “activity change, positive = activation” value was inactive: 25.2%.
The value for `Cc1ccccc1CNC(=O)C1=Cc2ccccc2OC1` was inactive: 13.3%; that for `Cc1ccc(-c2nnc(Nc3ccc(OC(F)(F)Cl)cc3)c3ccccc23)cc1S(=O)(=O)NC(C)(C)CO` was inactive: -11.1%.
For `CC(=O)N1CCc2c(sc3nc(SCC(C)C)n(-c4ccc(C)c(Cl)c4)c(=O)c23)C1`, the “activity change, positive = activation” value is inactive: -41.5%.
As for `N[C@@H](Cc1ccc(O)cc1)C(=O)O`, the figure is inactive: 1.4% [at 11.5 µM, percent change from vehicle, -100% = no light].
As to `CCCCn1c(=N)c(S(=O)(=O)c2ccc(C)cc2)cc2c(=O)n3cc(C)ccc3nc21`, the “activity change, positive = activation” value was inactive: -6.11%.
For the compound `CCc1nn2c(=O)cc(COC(=O)c3ccc(NC(=O)CCc4ccccc4)cc3)nc2s1`, the “activity change, positive = activation” value was inactive: -6.36%.
The value for `O=C(COc1ccc(Cl)cc1)N1CCN(Cc2ccc3c(c2)OCO3)CC1` was inactive: -21.9%; that for `O=C(COc1ccccc1)N(Cc1cccnc1)c1nc2c(F)cccc2s1` was inactive: 0.196%.
The value for `Nc1ccc(NC(=O)c2cccc(C(=O)Nc3ccc(N)cc3Cl)c2)c(Cl)c1` was inactive: -24.2%.
Turning to `Cc1ccc(Cl)cc1N1CCN(C(=O)CCCn2c(=O)[nH]c3ccc(Br)cc3c2=O)CC1`, the “activity change, positive = activation” value is inactive: -42.4%.
With `CCc1ccccc1NC(=O)C1CCN(c2cnccn2)CC1`, the “activity change, positive = activation” value is inactive: -11.2%.
Regarding `CC(=O)c1nnn(-c2ccc(C)cc2Cl)c1C`, the “activity change, positive = activation” value is inactive: 3.82%.
As to `O=C(CCn1cnnn1)Nc1cc(C(F)(F)F)cc(C(F)(F)F)c1`, the “activity change, positive = activation” value was inactive: -36.5%.
In the case of `CC(=O)c1ccc(Nc2ccc3cc(S(=O)(=O)N4CCCC4)ccc3n2)cc1`, the “activity change, positive = activation” value was inactive: -21.7%.
`CC(C)Oc1cccc(C2CC(=O)Nc3cc4c(cc32)OCO4)c1` (stereo not given): the “activity change, positive = activation” value is inactive: -40.8%.
The value for `COc1cc(NC(=O)CSc2nccn2C)cc(OC)c1OC` was inactive: 0.839%.
Regarding `COc1ccc2c(c1)c1c(c(=O)n(-c3ccc(OC)c(OC)c3)c(=O)n1Cc1ccccc1F)n2C`, the “activity change, positive = activation” value is inactive: -4.38%.
With `CCCCSCCCNC(=O)c1cn(C)c2ccc(S(=O)(=O)N3CCCCCC3)cc2c1=O`, the activity change, positive = activation was inactive: 6.89% [at 11.5 µM, percent change from vehicle, -100% = no light].
With `O=C(NCCS(=O)(=O)N1CCN(c2ccc(F)cc2)CC1)c1cccc(C(F)(F)F)c1`, the “activity change, positive = activation” value was inactive: 1.18%.
The value for `Cc1ccc(NC(=O)c2c(NC(=O)Cc3ccccc3)sc3c2CCCC3)cc1` was inactive: -15.5%.
Take `CCC(=O)C1=C(c2ccc(OC)c(OC)c2)N(C(=O)CC)n2c(CC)nnc2S1`: the “activity change, positive = activation” value is inactive: -2.12%.
In the case of `CCOc1ccc(CCNC(=O)CN2C(=O)COc3ccc(S(=O)(=O)N4CCCCCC4)cc32)cc1`, the “activity change, positive = activation” value was inactive: -34.3%.
As for `CC(=O)c1cccc(NC(=O)Cn2c(=O)oc3cc(S(=O)(=O)N4CCCC4)ccc32)c1`, the figure is inactive: -29%; as for `CC(=O)Nc1ccc(NC(=O)CCSCCc2ccccn2)cc1`, inactive: -5.25%; as for `CN(C)c1ccc(-c2nnc3n(Cc4ccccc4)c(=O)c4ccccc4n23)cc1`, inactive: -19.9%.
As for `c1ccc(CN(CC2=NCCN2)c2ccccc2)cc1`, the figure is inactive: -10.5%; as for `CN(C)c1ccc(CNC(=O)c2ccc(NC(=O)N3CCCCc4ccccc43)cc2)cc1`, inactive: -0.522%.
Turning to `COc1ccc(-n2c(SCC(=O)Nc3cccc(C)c3C)nc3c([nH]c4ccccc43)c2=O)cc1`, the “activity change, positive = activation” value is inactive: -14.5%.
Turning to `O=S(=O)(Nc1cc(F)ccc1F)c1ccc2[nH]c3c(c2c1)CCCCC3`, the “activity change, positive = activation” value was inactive: -25.7%.
The value for `Cc1ccc2oc(=O)c3cc(C(=O)N4CCN(c5ccccc5F)CC4)sc3c2c1` was inactive: -5.72%; that for `CC(C)(C)c1ccc(Oc2ccc(NC(=O)CCC(=O)OCC(=O)c3ccccc3)cc2)cc1` was inactive: -24.5%.
Turning to `O=C(CCn1ccc2cc(S(=O)(=O)N3CCCC3)ccc21)NCc1cccc(Cl)c1`, the “activity change, positive = activation” value is inactive: -13.6%.
The value for `Cc1cc(C(=O)NCc2cccc(Br)c2)c2c(C)nn(-c3ccccc3)c2n1` was inactive: -19.2%; that for `Cc1ccc(NC(=O)c2ccc(CNS(=O)(=O)c3ccc4c(c3)C(C)(C)C(=O)N4C)cc2)cc1C` was inactive: -45.5%.
The value for `CC(=O)N1c2ccc(S(=O)(=O)NCC3CCC(C(=O)Nc4ccc(C)c(C)c4)CC3)cc2CC1C` (stereo not given) was inactive: -12.4%.
